Some of the results follow.
Assays:
Assay in all cases: glycan array binding signal (z-score within array); higher = stronger binding
Conditions in all cases: glycan notation: IUPAC condensed, linker removed
[1] = molecular target: Neu5Ac(a2-3)[GalNAc(b1-4)]Gal(b1-4)Glc
How it was run: (§1)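 Glycan array data came from 3228 arrays in the Consortium for Functional Glycomics database, and only arrays with an available protein sequence were kept. Glycan names were put into IUPAC-condensed notation, and columns mapping to the same glycan were averaged. The binding signal is a within-array Z-score, averaged across arrays of one protein sequence run at different concentrations or buffers and across linkers. A negative Z-score can be read as non-binding.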

[2] = molecular target: Neu5Ac(a2-3)[GalNAc(b1-4)]Gal(b1-4)GlcNAc
How it was run: as §1

[3] = molecular target: Neu5Ac(a2-3)[GalNAc(b1-4)]Gal(b1-4)GlcNAc(b1-3)GalNAc
How it was run: as §1

[4] = molecular target: Neu5Ac(a2-3)[Neu5Ac(a2-6)]GalNAc
How it was run: as §1

Neu5Ac(a2-6)Gal = molecular target: Neu5Ac(a2-6)Gal
How it was run: as §1

[5] = molecular target: Neu5Ac(a2-6)Gal(b1-3)GlcNAc(b1-3)[Gal(b1-4)GlcNAc(b1-6)]Gal(b1-4)Glc
How it was run: as §1

Neu5Ac(a2-6)Gal(b1-4)Glc = molecular target: Neu5Ac(a2-6)Gal(b1-4)Glc
How it was run: as §1

[6] = molecular target: Neu5Ac(a2-6)Gal(b1-4)GlcNAc
How it was run: as §1

[7] = molecular target: Neu5Ac(a2-6)Gal(b1-4)GlcNAc(b1-2)Man
How it was run: as §1

[8] = molecular target: Neu5Ac(a2-6)Gal(b1-4)GlcNAc(b1-2)Man(a1-3)Man(b1-4)GlcNAc(b1-4)GlcNAc
How it was run: as §1

[9] = molecular target: Neu5Ac(a2-6)Gal(b1-4)GlcNAc(b1-2)Man(a1-3)[Gal(b1-4)GlcNAc(b1-2)Man(a1-6)]Man(b1-4)GlcNAc(b1-4)GlcNAc
How it was run: as §1

[10] = molecular target: Neu5Ac(a2-6)Gal(b1-4)GlcNAc(b1-2)Man(a1-3)[GlcNAc(b1-2)Man(a1-6)]Man(b1-4)GlcNAc(b1-4)GlcNAc
How it was run: as §1

[11] = molecular target: Neu5Ac(a2-6)Gal(b1-4)GlcNAc(b1-2)Man(a1-3)[GlcNAc(b1-4)][Neu5Ac(a2-6)Gal(b1-4)GlcNAc(b1-2)Man(a1-6)]Man(b1-4)GlcNAc(b1-4)GlcNAc
How it was run: as §1

[12] = molecular target: Neu5Ac(a2-6)Gal(b1-4)GlcNAc(b1-2)Man(a1-3)[Man(a1-6)]Man(b1-4)GlcNAc(b1-4)GlcNAc
How it was run: as §1

[13] = molecular target: Neu5Ac(a2-6)Gal(b1-4)GlcNAc(b1-2)Man(a1-3)[Neu5Ac(a2-3)Gal(b1-4)GlcNAc(b1-2)Man(a1-6)]Man(b1-4)GlcNAc(b1-4)GlcNAc
How it was run: as §1

[14] = molecular target: Neu5Ac(a2-6)Gal(b1-4)GlcNAc(b1-2)Man(a1-3)[Neu5Ac(a2-6)Gal(b1-4)GlcNAc(b1-2)Man(a1-6)]Man(b1-4)GlcNAc(b1-4)GlcNAc
How it was run: as §1

[15] = molecular target: Neu5Ac(a2-6)Gal(b1-4)GlcNAc(b1-2)Man(a1-3)[Neu5Ac(a2-6)Gal(b1-4)GlcNAc(b1-2)Man(a1-6)]Man(b1-4)GlcNAc(b1-4)[Fuc(a1-6)]GlcNAc
How it was run: as §1

[16] = molecular target: Neu5Ac(a2-6)Gal(b1-4)GlcNAc(b1-2)Man(a1-6)Man(b1-4)GlcNAc(b1-4)GlcNAc
How it was run: as §1

[17] = molecular target: Neu5Ac(a2-6)Gal(b1-4)GlcNAc(b1-2)Man(a1-6)[Gal(b1-4)GlcNAc(b1-2)Man(a1-3)]Man(b1-4)GlcNAc(b1-4)GlcNAc
How it was run: as §1

[18] = molecular target: Neu5Ac(a2-6)Gal(b1-4)GlcNAc(b1-2)Man(a1-6)[GlcNAc(b1-2)Man(a1-3)]Man(b1-4)GlcNAc(b1-4)GlcNAc
How it was run: as §1

[19] = molecular target: Neu5Ac(a2-6)Gal(b1-4)GlcNAc(b1-2)Man(a1-6)[Man(a1-3)]Man(b1-4)GlcNAc(b1-4)GlcNAc
How it was run: as §1

[20] = molecular target: Neu5Ac(a2-6)Gal(b1-4)GlcNAc(b1-2)[Neu5Ac(a2-6)Gal(b1-4)GlcNAc(b1-4)]Man(a1-3)[GlcNAc(b1-4)][Neu5Ac(a2-6)Gal(b1-4)GlcNAc(b1-2)[Neu5Ac(a2-6)Gal(b1-4)GlcNAc(b1-6)]Man(a1-6)]Man(b1-4)GlcNAc(b1-4)GlcNAc
How it was run: as §1

[21] = molecular target: Neu5Ac(a2-6)Gal(b1-4)GlcNAc(b1-2)[Neu5Ac(a2-6)Gal(b1-4)GlcNAc(b1-4)]Man(a1-3)[GlcNAc(b1-4)][Neu5Ac(a2-6)Gal(b1-4)GlcNAc(b1-4)Man(a1-6)]Man(b1-4)GlcNAc(b1-4)GlcNAc
How it was run: as §1

[22] = molecular target: Neu5Ac(a2-6)Gal(b1-4)GlcNAc(b1-2)[Neu5Ac(a2-6)Gal(b1-4)GlcNAc(b1-6)]Man(a1-6)[Neu5Ac(a2-6)Gal(b1-4)GlcNAc(b1-2)Man(a1-3)][GlcNAc(b1-4)]Man(b1-4)GlcNAc(b1-4)GlcNAc
How it was run: as §1

[23] = molecular target: Neu5Ac(a2-6)Gal(b1-4)GlcNAc(b1-3)Gal(b1-3)GlcNAc
How it was run: as §1

[24] = molecular target: Neu5Ac(a2-6)Gal(b1-4)GlcNAc(b1-3)Gal(b1-4)GlcNAc
How it was run: as §1

[25] = molecular target: Neu5Ac(a2-6)Gal(b1-4)GlcNAc(b1-3)Gal(b1-4)GlcNAc(b1-2)Man(a1-3)[Neu5Ac(a2-6)Gal(b1-4)GlcNAc(b1-3)Gal(b1-4)GlcNAc(b1-2)Man(a1-6)]GalNAc
How it was run: as §1

[26] = molecular target: Neu5Ac(a2-6)Gal(b1-4)GlcNAc(b1-3)Gal(b1-4)GlcNAc(b1-3)Gal(b1-4)GlcNAc
How it was run: as §1

[27] = molecular target: Neu5Ac(a2-6)Gal(b1-4)GlcNAc(b1-3)Gal(b1-4)GlcNAc(b1-3)Gal(b1-4)GlcNAc(b1-2)Man(a1-3)[Neu5Ac(a2-6)Gal(b1-4)GlcNAc(b1-3)Gal(b1-4)GlcNAc(b1-3)Gal(b1-4)GlcNAc(b1-2)Man(a1-6)]GalNAc
How it was run: as §1

[28] = molecular target: Neu5Ac(a2-6)Gal(b1-4)GlcNAc(b1-3)Gal(b1-4)GlcNAc(b1-3)GalNAc
How it was run: as §1

[29] = molecular target: Neu5Ac(a2-6)Gal(b1-4)GlcNAc(b1-3)Gal(b1-4)GlcNAc(b1-3)[Neu5Ac(a2-6)Gal(b1-4)GlcNAc(b1-3)Gal(b1-4)GlcNAc(b1-6)]GalNAc
How it was run: as §1

[30] = molecular target: Neu5Ac(a2-6)Gal(b1-4)GlcNAc(b1-3)Gal(b1-4)GlcNAc(b1-6)[Gal(b1-3)]GalNAc
How it was run: as §1

[31] = molecular target: Neu5Ac(a2-6)Gal(b1-4)GlcNAc(b1-3)Gal(b1-4)[Fuc(a1-3)]GlcNAc(b1-3)Gal(b1-4)[Fuc(a1-3)]GlcNAc
How it was run: as §1

[32] = molecular target: Neu5Ac(a2-6)Gal(b1-4)GlcNAc(b1-3)GalNAc
How it was run: as §1

[33] = molecular target: Neu5Ac(a2-6)Gal(b1-4)GlcNAc(b1-3)[Neu5Ac(a2-6)Gal(b1-4)GlcNAc(b1-6)]GalNAc
How it was run: as §1

[34] = molecular target: Neu5Ac(a2-6)Gal(b1-4)GlcNAc(b1-6)GalNAc
How it was run: as §1

[35] = molecular target: Neu5Ac(a2-6)Gal(b1-4)GlcNAc(b1-6)[Gal(b1-3)GlcNAc(b1-3)]Gal(b1-4)Glc
How it was run: as §1

[36] = molecular target: Neu5Ac(a2-6)Gal(b1-4)GlcNAc(b1-6)[Gal(b1-3)]GalNAc
How it was run: as §1

B1: LTL (Lotus tetragonolobus), P19664 (protein)
chain: VSFNYTEFKDDGSLILQGDAKIWTDGRLAMPTDPLVNNPKTTRSAGRALYATPVPIWDSATGNVASFVTSFNFLFVIRELKYTPTDGLVFFLAPVGTEIPSGSTGGFLGIFDGSNGFNQFVAVEFDSYHNIWDPKSLRSSHVGIDVNSIMSLKAVNWNRVSGSLEKATIIYDSQTNILSVVMTSQNGQITTIYGTIDLKTVLPEKVSVGFSATTGNPEREKHDIYSWSFTSTLKEPEEQA
glycan array binding signal (z-score) [1]: -0.257 | glycan array binding signal (z-score) [2]: -0.24 | glycan array binding signal (z-score) [3]: 1.14 | glycan array binding signal (z-score) [4]: -0.433 | glycan array binding signal (z-score) (Neu5Ac(a2-6)Gal): -0.162 | glycan array binding signal (z-score) [5]: -0.162 | glycan array binding signal (z-score) (Neu5Ac(a2-6)Gal(b1-4)Glc): -0.011 | glycan array binding signal (z-score) [6]: -0.18 | glycan array binding signal (z-score) [7]: -0.258 | glycan array binding signal (z-score) [8]: -0.193 | glycan array binding signal (z-score) [9]: -0.198 | glycan array binding signal (z-score) [10]: -0.031 | glycan array binding signal (z-score) [11]: -0.386 | glycan array binding signal (z-score) [12]: -0.047 | glycan array binding signal (z-score) [13]: -0.318 | glycan array binding signal (z-score) [14]: -0.148 | glycan array binding signal (z-score) [15]: 0.043 | glycan array binding signal (z-score) [16]: -0.313 | glycan array binding signal (z-score) [17]: -0.242 | glycan array binding signal (z-score) [18]: -0.209 | glycan array binding signal (z-score) [19]: -0.15 | glycan array binding signal (z-score) [20]: -0.15 | glycan array binding signal (z-score) [21]: -0.378 | glycan array binding signal (z-score) [22]: 0.023 | glycan array binding signal (z-score) [23]: -0.138 | glycan array binding signal (z-score) [24]: -0.232 | glycan array binding signal (z-score) [25]: 1.11 | glycan array binding signal (z-score) [26]: -0.226 | glycan array binding signal (z-score) [27]: 2.02 | glycan array binding signal (z-score) [28]: -0.146 | glycan array binding signal (z-score) [29]: 3.76 | glycan array binding signal (z-score) [30]: 0.304 | glycan array binding signal (z-score) [31]: -0.039 | glycan array binding signal (z-score) [32]: -0.176 | glycan array binding signal (z-score) [33]: -0.267 | glycan array binding signal (z-score) [34]: -0.12 | glycan array binding signal (z-score) [35]: -0.287 | glycan array binding signal (z-score) [36]: 0.02
